We go through 1 molecule from PubChem BioAssay AID248 (DTP/NCI, 2004).

Inconclusive results and toxic doses are left out. Not every entry of the source has a single result; some have several. The list is limited to them. An entry can have further records. Values given together differ, and nothing given here explains why; some may be repeats, others may stem from another dose, organism or construct than stated.

For this assay, the system named is L1210 leukemia ip in BDF1 mice, survival T/C. The assay is described as follows: NCI In Vivo Anticancer Drug Screen. Data for tumor model L1210 Leukemia (intraperitoneal) in B6D2F1 (BDF1) mice. The settings on record: endpoint: mean survival time; dose: 200.0 mg/kg/injection; schedule: Q01DX009 (ip); vehicle: other; higher = longer survival.

On to `S=c1cccn[nH]1`, for which the T/C was 93 % of control, 100 % of control, 406 % of control.
